Assay results: patent US7550150B2, “Methods of treating or preventing a disease, disorder or condition associated with a viral infection” (Barros Research Institute, priority 2005, dated 2009)
Like-named read-outs stand apart in the source and are kept apart here.

Legend:
[1] = mouse, in vivo, ip, 75 mg/kg/day
[2] = mouse, in vivo, ip, 75 mg/kg/day; remark: listed apart in the source
[3] = mouse, in vivo, ip
[4] = mouse, in vivo, ip, 75 mg/kg/day; remark: listed apart in the source
[5] = mouse, in vivo, ip, 75 mg/kg/day; remark: listed apart in the source

## NC(=O)c1ncn([C@@H]2O[C@H](CO)[C@@H](O)[C@H]2O)n1 [Ribavirin]
[1]
  Tox Controls Mean Host Weight Change: -0.8 g
[2]
  Tox Controls Mean Host Weight Change: -0.7 g
[3]
  Tox Controls Mean Host Weight Change: -0.9 g
[4]
  Tox Controls Mean Host Weight Change: 2.4 g
[5]
  Tox Controls Mean Host Weight Change: 0.6 g
